The whole screen tested about 420,000 compounds, of which about 50,000 (12%) were called active. Inconclusive means that the source gave no clear call. Such entries were picked first, then a sample of the others. The call rests on the fitted dose curve; in most records, active means well fitted inhibition curve with a large enough effect; inconclusive means small, poorly fitted or top-dose-only effect; inactive means flat fitted curve, though single readings scatter. No potency is given beside an inconclusive call; the fits are too rough.
Assay: qHTS for Inhibitors of human tyrosyl-DNA phosphodiesterase 1 (TDP1): qHTS in cells in presence of CPT; further: nearly all actives have a fitted effect of over 55% in size
Conditions: chicken DT40 Tdp1-/-;hTDP1 cells + 20 nM CPT, ATP luminescence, 48 h; activity change, negative = growth inhibition: at 46.2 µM (top of the series) unless noted
How it was run: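 Chicken DT40 Tdp1-/- cells complemented with human TDP1, 400 cells/well, exposed to compounds plus 20 nM camptothecin for at least 48 h at 37 C; viability read as ATP content by CellTiter-Glo luminescence.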
For `COc1ccc2[nH]c3c(c2c1)CCN1C(=O)C(CC(=O)NCCc2ccccn2)C[C@H](C(=O)N(C(C)C)C(C)C)[C@@]31C` (some centres undefined), the Potency was inconclusive [inhibitor, single point].
For `O=C(COC(=O)c1cc(Cl)nc(Cl)c1)NCCc1ccc(F)cc1`, the “activity change, negative = growth inhibition” value was inactive: -16.7%.
In the case of `CCOc1ccc2nc(SCC(=O)NCc3ccc4c(c3)OCO4)[nH]c2c1`, the Potency is reported as inconclusive [inhibitor, single point].
For `Cc1ccc(-c2nc3ccccc3c(=O)n2CCCN2CCOCC2)cc1`, the Potency was inconclusive [inhibitor, partial curve].
For `CCN(CC)c1nc(Nc2ccc(Cl)cc2)nc(OCC#N)n1`, the Potency was inconclusive [inhibitor, single point].
With `COc1ccc(-c2nc3ccccc3s2)cc1NC(=O)c1cc(OC)c(OC)c(OC)c1` the activity change, negative = growth inhibition was inconclusive: -30.1% [inhibitor].
For `Cc1cccc(-c2ccc(O)cc2CN2CCN(c3ncc(Cc4ccccc4)cn3)CC2)c1`, the Potency was inconclusive [inhibitor, partial curve, poor fit].
For `CCc1ccc(-n2c(N3CCN(c4ccc(F)cc4)CC3)nc3ccccc3c2=O)cc1`, the Potency was active: 23.1 µM.
In the case of `COC(=O)Cc1ccc(OC2(C)CCN(Cc3ccc(-c4ccccn4)cc3)C2)cc1` (centres undefined), the Potency is reported as inconclusive [inhibitor, single point].
With `Cc1cccc(C)c1NC(=O)c1c(C)nn(-c2ccccc2)c1Cl` the “activity change, negative = growth inhibition” value was inactive: -7.2%.
For `O=C(NCCCN1CCN(c2cccc(Cl)c2)CC1)C1(S(=O)(=O)c2ccc(Cl)cc2)CC1`, the Potency was inconclusive [inhibitor, single point].
For `CCOC(=O)CSC1=C(C#N)C(c2sccc2C)C(C(C)=O)=C(C)N1` (centres undefined), the Potency was inconclusive [inhibitor, single point].
With `CCN(C(=O)c1cccs1)c1nc(-c2ccc(OC)cc2)cs1` the “activity change, negative = growth inhibition” value was inactive: -2.96%.
In the case of `CCCCN1CC[C@H]2C=CC[C@@H](C(=O)Nc3ccc(Cl)c(C(F)(F)F)c3)[C@H]2C1=O`, the Potency is reported as inconclusive [inhibitor, single point].
With `Cn1cnc(S(=O)(=O)N2CCCCC2c2cc(C(=O)Nc3ccccc3Cl)no2)c1` (centres undefined) the “activity change, negative = growth inhibition” value was inactive: -18.1%.
With `COCCCNC(=O)c1ccc(Cn2c(=O)c3ccccc3n(Cc3cc(C)ccc3C)c2=O)cc1` the “activity change, negative = growth inhibition” value was inactive: -3.89%.
In the case of `c1cc2c(cc1Cc1cncc(Cc3ccc4c(c3)OCO4)c1)OCO2`, the Potency is reported as inconclusive [inhibitor, single point].
With `CCOC(=O)c1cccc(NC(=S)NCc2ccc(C)cc2)c1` the “activity change, negative = growth inhibition” value was inactive: -4.36%.
For `CC(C)(C)CC(C)(C)NCC(O)COc1c(F)cc(Br)cc1F` (centres undefined), the Potency was inconclusive [inhibitor, single point].
On the % scale 0 is the no-effect control and ±100 the full control effect; potency means the concentration at half of the fitted maximal effect; tags describe the fitted curve by direction and shape.
